The target of this test is T1, StrepII-FLAG-tagged wild-type FBXO38 (SF-FBXO38 WT), transfected in HEK293T cells (human) (UniProt Q6PIJ6).
T1 sequence: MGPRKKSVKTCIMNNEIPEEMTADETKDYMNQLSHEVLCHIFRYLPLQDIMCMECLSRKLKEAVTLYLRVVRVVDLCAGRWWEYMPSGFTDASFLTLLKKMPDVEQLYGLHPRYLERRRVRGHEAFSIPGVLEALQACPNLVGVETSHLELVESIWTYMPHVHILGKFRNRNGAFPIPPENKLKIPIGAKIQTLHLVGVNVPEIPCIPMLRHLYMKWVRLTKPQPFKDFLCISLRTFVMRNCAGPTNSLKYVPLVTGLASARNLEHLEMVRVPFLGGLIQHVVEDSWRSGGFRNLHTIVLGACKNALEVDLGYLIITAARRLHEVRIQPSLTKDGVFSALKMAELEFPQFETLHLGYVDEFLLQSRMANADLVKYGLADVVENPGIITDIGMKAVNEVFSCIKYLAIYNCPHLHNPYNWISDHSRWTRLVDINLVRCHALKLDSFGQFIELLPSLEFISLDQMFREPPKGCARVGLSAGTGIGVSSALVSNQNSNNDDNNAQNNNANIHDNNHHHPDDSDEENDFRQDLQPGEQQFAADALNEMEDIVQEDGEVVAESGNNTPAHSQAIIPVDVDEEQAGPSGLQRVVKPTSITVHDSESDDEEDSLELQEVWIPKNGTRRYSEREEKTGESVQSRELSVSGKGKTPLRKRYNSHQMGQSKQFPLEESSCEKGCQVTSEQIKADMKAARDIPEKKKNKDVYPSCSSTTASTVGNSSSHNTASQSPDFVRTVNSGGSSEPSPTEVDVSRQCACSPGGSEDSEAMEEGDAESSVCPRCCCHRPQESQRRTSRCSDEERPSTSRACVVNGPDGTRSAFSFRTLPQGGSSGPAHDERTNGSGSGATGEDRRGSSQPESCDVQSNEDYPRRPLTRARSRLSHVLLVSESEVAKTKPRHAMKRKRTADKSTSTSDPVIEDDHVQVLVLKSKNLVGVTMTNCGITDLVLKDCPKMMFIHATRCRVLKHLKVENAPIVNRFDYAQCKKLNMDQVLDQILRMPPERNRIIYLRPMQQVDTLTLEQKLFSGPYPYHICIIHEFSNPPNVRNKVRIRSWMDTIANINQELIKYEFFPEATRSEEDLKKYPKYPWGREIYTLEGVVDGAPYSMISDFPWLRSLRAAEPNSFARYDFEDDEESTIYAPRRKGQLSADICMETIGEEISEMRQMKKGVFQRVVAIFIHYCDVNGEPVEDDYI
The test is described as follows: co-IP; SF-tagged bait affinity-purified on Strep-Tactin Sepharose from whole-cell lysates of transfected HEK293T cells (150 mM NaCl, 50 mM Tris pH 7.5, 0.4% Triton X-100, Benzonase), desthiobiotin elution, immunoblot; MLN4924 before collecting where indicated. On the technique in general: A western blot detects proteins with antibodies after separation by electrophoresis.

These are yes or no findings as the source states them, for the method shown. In cells and extracts the contact can be indirect. Sequences can lack the tags named with a protein.

B1: centromere protein B (CENP-B), endogenous in HEK293T cells (protein, UniProt P07199 1-599)
chain: MGPKRRQLTFREKSRIIQEVEENPDLRKGEIARRFNIPPSTLSTILKNKRAILASERKYGVASTCRKTNKLSPYDKLEGLLIAWFQQIRAAGLPVKGIILKEKALRIAEELGMDDFTASNGWLDRFRRRHGVVSCSGVARARARNAAPRTPAAPASPAAVPSEGSGGSTTGWRAREEQPPSVAEGYASQDVFSATETSLWYDFLPDQAAGLCGGDGRPRQATQRLSVLLCANADGSEKLPPLVAGKSAKPRAGQAGLPCDYTANSKGGVTTQALAKYLKALDTRMAAESRRVLLLAGRLAAQSLDTSGLRHVQLAFFPPGTVHPLERGVVQQVKGHYRQAMLLKAMAALEGQDPSGLQLGLTEALHFVAAAWQAVEPSDIAACFREAGFGGGPNATITTSLKSEGEEEEEEEEEEEEEEGEGEEEEEEGEEEEEEGGEGEELGEEEEVEEEGDVDSDEEEEEDEESSSEGLEAEDWAQGVVEAGGSFGAYGAQEEAQCPTLHFLEGGEDSDSDSEEEDDEEEDDEDEDDDDDEEDGDEVPVPSFGEAMAYFAMVKRYLTSFPIDDRVQSHILHLEHDLVHVTRKNHARQAGVRGLGHQS
B1: the binding entry is given as “no binding”.
